Results as given in PubChem BioAssay AID463173 (ICCB-Longwood Screening Facility, Harvard Medical School, 2010).
Among all 52,000 compounds or so, about 1,700 (3.3%) were called active. Cut-off read from the data, not from the text of the source: active = survival mostly below about 52% (no sharp cut-off); inactive = mostly above about 56%. The list shows a part of the results.

These molecules were tested on Wild type (assay: S. aureus survival, RN4220 and DeltatarO strains – OD600, teichoic acid synthesis inhibitors, primary screen (AID 463173)). Settings: S. aureus RN4220 wild type/DeltatarO growth, OD600, 18 h, active compounds read low, screened at 18.75 µg/mL (by protocol).

| SMILES | survival |
| --- | --- |
| Cc1cc(=O)[nH]c(SCSc2nc(C)cc(=O)[nH]2)n1 | inactive: 104% |
| CCC1CCCCN1CCCNC(=O)c1c(O)nc2ccccn2c1=O (configuration not stated) | inactive: 100% |
| COc1ccccc1C(=O)NCc1nnnn1-c1ccc(C)c(C)c1 | inactive: 79% |
| CC(O)c1nc2ccccc2n1Cc1ccccc1 (configuration not stated) | inactive: 100% |
| COc1ccc(-c2csc(-c3nc(-c4ccc(Br)s4)cs3)n2)cc1F | inactive: 78% |
| Cn1c(-c2ccccc2)cnc1NC(=O)c1ccc(F)cc1 | inactive: 116% |
| CCCC1=Nc2cc(C(=O)NCCc3ccc(OCC)cc3)ccc2Sc2ccccc21 | inactive: 82% |
| CN1CCN(C(=O)C(C(=O)N2CCN(C)CC2)C23CC4CC(CC(C4)C2)C3)CC1 | inactive: 101% |
| CC(=O)N(CN1C(=O)CCC1=O)c1ccc(Cl)c(Cl)c1 | inactive: 98% |
| COc1cc2c(-c3ccccc3O)nc3c(c(C)nn3-c3ccccc3)c2cc1OC | inactive: 63% |
| O=C(CN1CCCC1)N/N=C/c1c(O)ccc2ccccc12 | inactive: 104% |
| COc1cccc(CN2C(=O)c3ccccc3Sc3ccc(C(=O)NCCc4ccc(C)cc4)cc32)c1 | inactive: 75% |
| O=C(Nc1ccc(-c2nc3cc(NC(=O)c4ccccc4F)ccc3o2)cc1)c1ccccc1F | inactive: 72% |
| Cc1cccc(NC(=O)Cn2cc(C(=O)C3CCCCC3)c3ccccc32)c1C | inactive: 61% |
| COc1ccccc1C(=O)N1CCCCC1CCN1CCOCC1 (configuration not stated) | inactive: 89% |
| N#Cc1ccccc1NC(=O)CSc1ncn[nH]1 | inactive: 152% |
| Cc1ccccc1CNC(=O)Cn1ccc2cc(S(=O)(=O)N3CCCCC3)ccc21 | inactive: 123% |
| COc1ccccc1NC(=O)c1sc2nc(C)c(C(=O)Nc3ccc(C)cc3C)c(-c3ccc(Br)cc3)c2c1N | inactive: 89% |
| CCOc1ccc(C(=O)c2cn(CC(=O)Nc3ccc4c(c3)OCCO4)c3ccc(OC)cc3c2=O)cc1 | inactive: 94% |

| SMILES | survival |
| --- | --- |
| CCCc1nn2c(=O)cc(COC(=O)c3cccs3)nc2s1 | inactive: 133% |
| Cc1ccc(CNC(=O)C(=O)NCC(c2cccnc2)N2CCN(c3ccc(F)cc3)CC2)cc1 (configuration not stated) | inactive: 84% |
| O=C(NCc1ccccc1)c1cc2sccc2n1Cc1ccc(F)cc1 | inactive: 99% |
| Cc1cccc(C(=O)Nc2ccc(C(=O)OCc3cc(=O)n4c5c(sc4n3)CCCC5)cc2)c1 | inactive: 95% |
| CCOc1ccc(C(=O)CSc2nc3cc(C(=O)NC4CCCC4)ccc3c(=O)n2CC2CCCO2)cc1 (configuration not stated) | active: 0% |
| CC(=O)c1ccc(NC(=O)c2ccc3c(c2)nnn3C2CCCC2)cc1 | inactive: 72% |
| Cc1ccc(C)c(NC(=O)c2nc(S(C)(=O)=O)ncc2N(Cc2ccc(C(C)(C)C)cc2)Cc2ccco2)c1 | inactive: 87% |
| O=C(CCc1nc2ccccc2[nH]c1=O)OCc1ccc(Cl)cc1 | inactive: 99% |
| Cc1ccn2cc(C(=O)NC3CCCCC3)nc2c1 | inactive: 99% |
| CN1C(=O)Cc2cc(S(=O)(=O)N3CCN(c4cccc(C(F)(F)F)c4)CC3)ccc21 | inactive: 135% |
| CCOC(=O)N1CCC(NC(=O)c2ccc3c(c2)N(Cc2cc(C)ccc2C)C(=O)c2ccccc2S3(=O)=O)CC1 | inactive: 77% |
| CCOc1ccc(CCn2c3c(c(=O)[nH]c2=O)C(NC(=O)c2ccccc2)(C(F)(F)F)C(=O)N3)cc1OCC (configuration not stated) | inactive: 68% |
| CCCCCn1c(=O)[nH]c2cc(C(=O)N3CCN(c4cc(Cl)ccc4C)CC3)ccc2c1=O | inactive: 83% |
| OC1CCN(C(c2cccc(C(F)(F)F)c2)c2nnnn2Cc2ccc(F)cc2)CC1 (configuration not stated) | inactive: 114% |
| COc1ccc(NC(=O)CSc2nc3ccccc3nc2Cc2ccc(C)cc2)cc1Cl | inactive: 54% |
| CCOC(=O)c1c(S(=O)(=O)NCC(=O)Nc2cc(C)ccc2OC)c(C)n(C)c1C | inactive: 99% |
| CC(Sc1nnc(COc2ccccc2)n1-c1ccccc1)C(=O)O (configuration not stated) | inactive: 109% |
| Cc1ccc(C(=O)OCc2cc(=O)n3nc(-c4cccs4)sc3n2)cc1 | inactive: 78% |
| Cc1ccccc1C(=O)OCc1cc(=O)n2nc(C3CC3)sc2n1 | inactive: 80% |

| SMILES | survival |
| --- | --- |
| CCN(CC)c1ccc2cc(-c3nc(-c4ccc(Cl)cc4Cl)cs3)c(=O)oc2c1 | inactive: 32% |
| O=C(Cn1cc(SCc2ccccc2F)c2ccccc21)N1CCCCCC1 | inactive: 81% |
| COc1ccccc1NC(=O)Cn1c(=O)n(Cc2cccs2)c(=O)c2cccnc21 | inactive: 75% |
| CCOC(=O)c1ccc(Nc2nc3nonc3nc2Nc2cccc(C)c2C)cc1 | active: 0% |
| CC(OC(=O)CCc1nc2ccccc2[nH]c1=O)C(=O)c1ccccc1 (configuration not stated) | inactive: 108% |
| Cc1nc(-c2ccccc2)sc1-c1ccc(SCC(=O)NCc2ccccc2)nn1 | inactive: 93% |
| Cc1coc2cc3oc(=O)c(CC(=O)NCc4ccccc4)c(C)c3cc12 | inactive: 86% |
| Cc1cc(NC(=O)c2ccccc2C)no1 | inactive: 107% |
| COc1cccc(-c2cnc(NCc3ccccc3Cl)n2C)c1 | inactive: 70% |
| Cc1ccc(C(=O)Nc2ccc3oc(-c4cccnc4)nc3c2)c(Cl)c1 | inactive: 92% |
| CCOc1ccccc1NC(=O)c1cc(S(=O)(=O)NC2CCCC2)ccc1F | inactive: 71% |
| CC(C)(C)c1ccc(S(=O)(=O)Nc2ccc(O)c(Sc3nc4ccccc4s3)c2)cc1 | active: 3% |
| CC(=O)N1CCCc2cc(S(=O)(=O)N3CCCC(C(=O)Nc4ccc(C)c(C)c4)C3)ccc21 (configuration not stated) | inactive: 91% |
| CCOc1ccc2nc(N3CCC(C(=O)Nc4c(C)cccc4C)CC3)sc2c1 | inactive: 86% |
| Cc1ccc(C)c(N2CCN(C(=O)c3cc4c(=O)n(Cc5cccs5)ccc4nc3C)CC2)c1 | inactive: 80% |
| Cc1ccc(S(=O)(=O)Nc2cc3c(cc2Cl)n(C)c(=O)c(=O)n3C)cc1 | inactive: 75% |
| O=C(Nc1cccc(F)c1)NC1(C(=O)NCc2ccco2)CCCCC1 | inactive: 102% |
| Cc1ccc(C)c(CN2C(=O)c3ccccc3S(=O)c3ccc(C(=O)N(C)Cc4ccccc4)cc32)c1 (configuration not stated) | inactive: 96% |
| CCCCOc1ccc(CNC(=O)c2ccc(NC(=O)N3CCSc4ncccc43)cc2)cc1 | inactive: 57% |
